# Source: PubChem BioAssay AID1645882 (National Center for Advancing Translational Sciences (NCATS), 2021)
# The whole screen tested about 16,000 compounds, of which about 120 (0.75%) were called active. Not shown: some 4% with an inconclusive outcome. Calls follow the shape of the dose curve; as a rule, active = well fitted inhibition curve with a large enough effect; inconclusive = small, poorly fitted or top-dose-only effect; inactive = no such curve, though single readings can be large or run the other way. The list shows a part of the results.
# Biological target: Rap guanine nucleotide exchange factor 3 (Homo sapiens) (UniProt O95398)
# Test: Validation qHTS for antagonist of cAMP-regulated guanine nucleotide exchange factor 3 (EPAC1);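 also: plate controls were DMSO for no effect and ATA control for full effect; nearly all actives have a fitted effect of over 75% in size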
# Conditions: EPAC1 Rap1B-BODIPY-GDP exchange, fluorescence; series mostly up to 150 µM; activity change, negative = inhibition: at the top concentration
# Summary of the method: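 Nucleotide exchange followed as fluorescence loss when BODIPY-GDP leaves Rap1B (480 nm excitation, 540 nm emission), read at 5 min intervals over 30 min. Reaction: 100 nM EPAC1, 250 nM RAP1B-BODIPY-GDP, 50 uM GDP; ATA and DMSO define normalization.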
# Sequence of UniProt O95398 (O95398 whole entry, looked up): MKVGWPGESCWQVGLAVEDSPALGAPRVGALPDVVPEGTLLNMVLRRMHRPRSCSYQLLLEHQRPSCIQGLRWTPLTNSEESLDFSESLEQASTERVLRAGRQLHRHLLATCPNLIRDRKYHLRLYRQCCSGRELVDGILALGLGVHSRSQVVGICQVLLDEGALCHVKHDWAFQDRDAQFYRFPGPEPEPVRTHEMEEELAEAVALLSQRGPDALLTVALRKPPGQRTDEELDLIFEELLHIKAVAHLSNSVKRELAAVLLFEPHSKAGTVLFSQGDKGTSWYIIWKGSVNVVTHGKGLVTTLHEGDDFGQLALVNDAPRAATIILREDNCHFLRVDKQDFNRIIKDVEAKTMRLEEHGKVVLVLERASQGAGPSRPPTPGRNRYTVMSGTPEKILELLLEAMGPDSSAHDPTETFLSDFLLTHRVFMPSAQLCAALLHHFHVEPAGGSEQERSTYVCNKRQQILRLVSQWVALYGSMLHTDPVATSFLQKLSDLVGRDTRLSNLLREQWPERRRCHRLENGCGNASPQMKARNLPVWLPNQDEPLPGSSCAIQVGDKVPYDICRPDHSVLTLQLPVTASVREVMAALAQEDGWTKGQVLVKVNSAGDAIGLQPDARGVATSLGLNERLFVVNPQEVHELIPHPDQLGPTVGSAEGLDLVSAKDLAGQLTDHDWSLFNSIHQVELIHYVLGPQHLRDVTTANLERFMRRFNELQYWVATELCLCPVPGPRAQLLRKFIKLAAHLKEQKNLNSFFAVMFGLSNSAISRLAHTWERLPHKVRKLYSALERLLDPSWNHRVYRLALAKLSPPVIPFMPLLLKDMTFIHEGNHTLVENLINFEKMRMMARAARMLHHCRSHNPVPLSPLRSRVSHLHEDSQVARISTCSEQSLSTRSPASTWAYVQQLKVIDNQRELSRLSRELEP
row,Structure (SMILES),"activity change, negative = inhibition"
1,N#Cc1ccc(CN2CC[C@@]3(CCCN(C(=O)c4cc(C(F)(F)F)cc(C(F)(F)F)c4)C3)C2)cc1,inactive: -18.5%
2,CC[C@H](C)C(=O)O[C@H]1CCC=C2C=C[C@H](C)[C@H](CC[C@@H]3C[C@@H](O)CC(=O)O3)[C@H]21,inactive
3,COCC(=O)N1CCC2(CC1)CCN(C(=O)Nc1cccc(C#N)c1)CC2,inactive: 16.3%
4,COc1ccc(CN2Cc3ccccc3OC(c3ccccc3OC)C2)c(O)c1 (stereo not drawn),inactive: 0.335%
5,C[C@@H]1CN(Cc2ccc3c(c2)CN(Cc2cccn2-c2cccnc2)CCO3)C[C@H](C)O1,inactive: 10.4%
6,CC1(C)CCC[C@]2(C)C3CC(=O)O[C@@]3(C)CC[C@H]12 (stereo partly drawn),inactive: 9.29%
7,O=C(Nc1cccc(F)c1)N1CCC2(CC1)CCN(C(=O)c1cccc(F)c1)CC2,inactive: 12.9%
8,CC(C)C[C@@H](COc1ccccc1)N1CCN(C)CCC1=O,inactive: 5.09%
9,CC(C)C[C@H](NC(=O)CNC(=O)[C@H](Cc1ccc(O)cc1)NC(=O)[C@H](CO)NC(=O)[C@H](Cc1c[nH]c2ccccc12)NC(=O)[C@H](Cc1cnc[nH]1)NC(=O)[C@@H]1CCC(=O)N1)C(=O)N[C@@H](CCCN=C(N)N)C(=O)N1CCC[C@H]1C(=O)NCC(N)=O (stereo in doubt),inactive: 16.9%
10,COc1ccc2[nH]cc(CCNc3ccnc(-c4ccoc4)n3)c2c1,inactive: -7.57%
11,CC1(C)S[C@@H]2[C@H](NC(=O)Cc3ccccc3)C(=O)N2[C@H]1C(=O)O (tested in a mixture with another compound),inactive: 16.4%
12,CNc1ncnc2ccc(-c3ccccc3OC)cc12,inactive: 25%
13,COc1c2occc2c(OC)c2c(=O)cc(C)oc12,inactive
14,CC(C)c1c(C(=O)NCCN2CCOCC2)cnn1-c1nccc(-c2ccco2)n1,inactive: 10.2%
15,O=C(N[C@@H]1c2ccccc2C2(CCN(Cc3c(O)ccc4ccccc34)CC2)[C@H]1O)c1ccccc1,inactive: 5.29%
16,CC[C@H](C)[C@H](NC(=O)[C@H](CCCN=C(N)N)NC(=O)[C@H](CCCN=C(N)N)NC(=O)[C@H](CC(C)C)NC(=O)[C@H](Cc1ccccc1)NC(=O)CNC(=O)CN)C(=O)N[C@@H](CCCN=C(N)N)C(=O)N1CCC[C@H]1C(=O)N[C@@H](CCCCN)C(=O)N[C@@H](CC(C)C)C(=O)N[C@@H](CCCCN)C(=O)O,inactive: 11.8% [at 15.3 µM]
17,C1CNCCN1,inactive
18,COc1cccc(Cn2c(=O)cnc3cnc(OCc4ccccc4)nc32)c1,inactive: 2.62%
19,COc1ncc2nc(-c3cc(F)cc(F)c3)c(=O)n(C)c2n1,inactive: 10.3%
20,Cc1c(C(=O)NCCCc2ccncc2)cnn1-c1ncc2c(n1)-c1ccccc1CC2,inactive: 18.8%
21,CN(CCO)C(=O)c1cn(C2CCCN(Cc3cccc4ccccc34)C2)nn1 (stereo not drawn),inactive: 12.6%
22,COc1ccc(Oc2ncc3ncc(=O)n(C4CC4)c3n2)cc1,inactive: 14.4%
23,CN(C)Cc1ccccc1-c1ccc2ncnc(N(C)C)c2c1,inactive: -1.95%
24,O=C(C[N+]1(CC(O)c2ccccc2)CCOCC1)c1ccccc1 (stereo not drawn),inactive: -20.5%

row,Structure (SMILES),"activity change, negative = inhibition"
1,COc1cc(=O)n2c(c1C(=O)N(C)Cc1nonc1C)CCN(C(=O)c1cccc(C)c1C)CC2,inactive: -5.14%
2,C[C@H](CCC(=O)O)C1CC[C@H]2C3CC[C@@H]4C[C@H](O)CC[C@]4(C)C3C[C@H](O)[C@]12C (stereo partly drawn),inactive: -2.57%
3,COc1ccccc1CNc1nc(-c2cccc(NS(C)(=O)=O)c2)nc2ccccc12,inactive: -12.4%
4,COc1ncc2nc(-c3ccc(Cl)cc3)c(=O)n(CCC#N)c2n1,inactive: -0.121%
5,CCCCC/C=C\C[C@@H](O)/C=C/C=C/C=C\[C@@H](O)CCCC(=O)O,inactive: 0.23% [at 1.57 µM]
6,Cc1[nH]cnc1C[C@H]1CCc2c(C)c3ccccc3n2C1=O,inactive: 11.8%
7,CCC(C)N(C)C(=O)c1cc2ccccc2c(-c2ccccc2Cl)n1 (stereo not drawn),inactive
8,COc1ccc(-c2nc3cnc(N4CCNCC4)nc3n(CCC#N)c2=O)cc1,inactive: 17.3%
9,Cc1ccc2c(c1)cc(CN(C)Cc1nc(C)cs1)c(=O)n2C,inactive: 7.65%
10,Cc1cnc(CNc2ncnc3ccc(-c4ccccc4CN(C)C)cc23)cn1,inactive: 25.8%
11,COc1cc2c(cc1C(F)(F)F)N(C(=O)Nc1cc(F)cc(-c3cccnc3)c1)CC2,inactive: -17%
12,O=c1cnc2cnc(Oc3ccccc3)nc2n1C1CC1,inactive: -0.744%
13,OC1C(O)C(O)C(O)C(O)C1O (stereo not drawn),inactive: 7.45%
14,CC(C)(CNC(=O)c1cnn(-c2ncc3c(n2)-c2ccccc2CC3)c1C1CC1)N1CCOCC1,inactive: 14.1%
15,Nc1nc2ccc(Cl)cc2c2nc(-c3ccco3)nn12,inactive
16,CN=C(NC)NCc1ccccc1,inactive: 23.5%
17,C=C[C@@H]1c2cc(C)ccc2N(S(=O)(=O)c2ccc(C)cc2)[C@H](c2ccccc2C(F)(F)F)C1(C#N)C#N,inactive: 9.89%
18,CCC1CN(CCNC(=O)c2cccc3nccnc23)Cc2cc(OC)ccc2O1 (stereo not drawn),inactive: 14.2%
19,COc1ccc(CNc2nc(-c3ccc(N(C)C)cc3)nc3ccccc23)c(OC)c1,inactive: -14%
20,COc1ccccc1CN1CCCC2(CCNCC2)C1,inactive: 8.56%
21,O=c1[nH]c(=O)n(C2CCCO2)cc1F (stereo not drawn),inactive: 15.2%
22,CC(NCCC(c1ccccc1)c1ccccc1)c1ccccc1 (stereo not drawn),inactive: 16.7%
23,CCCCCCCCCCCCOCCCN,inactive: 9.97%
24,FC(F)(F)c1ccccc1-c1ccc2ncnc(NCc3cccs3)c2c1,inactive: -8.08%
